± gives the standard deviation of the averaged measurements. The list shows a part of the results.

The assay relates to PfAP2-G AP2 domain (GST-tagged). The assay can be described thus: gcPBM binding intensity (ln(normalized median fluorescence intensity)); higher = stronger DNA binding. In outline: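 GST-fused DNA-binding domains of P. falciparum, expressed in E. coli, were applied at about 25 μg on average for 1 h to an Agilent 4 × 180k array of primer-extended double-stranded 36-bp intergenic genomic probes and negative controls. Binding intensity is the highest Masliner-normalised natural-log median intensity across replicate spots of either probe orientation, measured with Alexa488 anti-GST antibody and a 488 nm scan.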
Regarding “AATATATAATTTTATAGTACATAATAAAAGAACAGG [XGTACX_site724]”, the “gcPBM binding intensity (ln)” value worked out at 11.3 ± 0.62. As to “TTATATTATGCTTGAATGCACTTTGAAGCACAATCT [GTGCAC_site9789]”, the “gcPBM binding intensity (ln)” value amounted to 9.96 ± 0.23. As for “TATTCAACATAATATGCACACAAAAATTATGGAACG [CACACA_site8660]”, the “gcPBM binding intensity (ln)” value is 10.1 ± 0.071. The same measure for “TTAAAAAAAAAAAGGTGTACTATAATTTAATATCAC [XGTACX_site6316]”: 11.6 ± 1.1; for “TATATTTACGTATGTCGAACGTTATTTTGAACAACC [CACACA_negctrl_site1261]”: 10.3 ± 0.2. For “TGTATGTCTTTATTTTGTACACAATATAAAAAATTA [XGTACX_site5441]”, the “gcPBM binding intensity (ln)” value stood at 11.2 ± 0.78. In the case of “CGCACAAAAATATACACACACACATATATATTTATT [CACACA_site3645]”, the “gcPBM binding intensity (ln)” value was 10 ± 0.12. As for “CGTTTATATAGTGATGCATGCATTGTTAACATGGTT [TGCATGCA_site418]”, the “gcPBM binding intensity (ln)” value came to 9.97 ± 0.057. As for “TTTATACACAAAAAATGTACATATATATAATGAATT [XGTACX_site1195]”, the “gcPBM binding intensity (ln)” value worked out at 11.2 ± 0.72.

“ACATATAAAATGTATACACACAAATATTACAGAGAT [CACACA_site4920]”: the “gcPBM binding intensity (ln)” value was found to be 10.19 ± 0.092. For “GCTTTTGAAAATATACACATGTTAGGAATACAGGGG [TGCATGCA_negctrl_site480]”, the “gcPBM binding intensity (ln)” value is 10.8 ± 0.46.

As for TATAATAACAATTTAGTGCATATAATAATATTTTAT, the “gcPBM binding intensity (ln)” value is 9.58 ± 0.16.

For “ATTTTTTTTCTTTTTTTTTTACATTTTTTTCTTTTT [CACACA_negctrl_site1289]”, the “gcPBM binding intensity (ln)” value worked out at 9.63 ± 0.099. The same measure for “AATTAAGTTAAACATTAAAAAAAACAAAAAATTAAA [CACACA_negctrl_site1333]”: 9.785 ± 0.064; for “AACATACACATATACACACACACATATATACATATA [CACACA_site1093]”: 10.2 ± 0.19. Then “AAAAAAAAAAAAACATGTACATAAATGTAAAAAAGT [XGTACX_site8158]”, with 11.3 ± 0.53; and “TATAAACCCACCTACACACACAACGTAAATGCATTG [CACACA_site2238]”, with 10.3 ± 0.18; and “ATTTAACAACTTCAAACACACAATATAGATTTATAT [CACACA_site7067]”, with 9.87 ± 0.042. Regarding “ATATATACATATATATGTACGTATATTTTTATTTCT [XGTACX_site6198]”, the “gcPBM binding intensity (ln)” value turned out to be 11.6 ± 1.1. The same measure for “AATAATTAAAATTATCTACACACCTTTATAAATATA [CACACA_site9300]”: 9.755 ± 0.035; for “AATTTAAACAAGGATCCACACACCCCAAAAAAAAAA [CACACA_site8125]”: 10.6 ± 0.49; for “ATGCATATGTTTATTGCACACACCAAAAAGAAAACA [CACACA_site403]”: 10.3 ± 0.16.

For “AAAATGTGCCCACGCGTACACACAAAAAAAGAAAAA [CACACA_site2004]”, the “gcPBM binding intensity (ln)” value is 11.6 ± 0.79. Then “TACAAACTATGATGCACACATATATATATGTATACA [CACACA_site1226]”, with 10.06 ± 0.021; and “GCCATTAATTTATACACACACATTATGATTTTTTAT [CACACA_site754]”, with 10.16 ± 0.014; and “CCTGAACACATACATACACACACACTAATAAAAAAA [CACACA_site8023]”, with 10.5 ± 0.56.

Turning to “TTTATATTATTTTAAACATGCACAAGTATAATTTAT [TGCATGCA_site233]”, the “gcPBM binding intensity (ln)” value was determined as 10 ± 0.18.

With “TAAATTTAGAAACACACACACATATATATATATATA [CACACA_site847]”, the “gcPBM binding intensity (ln)” value turned out to be 10.1 ± 0.36. As to “TGTGGGAATAACCACACACACACACGCATATAAATA [CACACA_site7634]”, the “gcPBM binding intensity (ln)” value was 10.3 ± 0.2. For “AATATAAAACATATCACACATATGTATTTATGTATA [CACACA_site5763]”, the “gcPBM binding intensity (ln)” value came to 9.62 ± 0.15.

For “TATATGTCAATATCTACACACATATATATAATTATT [CACACA_site3156]”, the “gcPBM binding intensity (ln)” value turned out to be 9.87 ± 0.057.

On to “ATACATATTAAAGGATGTACACTTATATTTTTTAGA [XGTACX_site5406]”, for which the “gcPBM binding intensity (ln)” value turned out to be 11.4 ± 0.78. Take “TTTTCATATGAACAATGTACACATCGTATAATTCTG [XGTACX_site4756]”: the “gcPBM binding intensity (ln)” value turned out to be 11.3 ± 0.67.

Consider “TGAACAGACGAGCACACACACACATATATATATATA [CACACA_site1019]”, for which the “gcPBM binding intensity (ln)” value is 10.5 ± 0.62. Then “CTCATAAAAATAACGTTAACATAAATTTATTGTGAT [XGTACX_negctrl_site169]”, with 9.905 ± 0.092; and “AAGGACACCTTCAAAACACACATACAAATAAATAGA [CACACA_site5771]”, with 10.22 ± 0.042. For the sequence “TATTCTGGTGTAAATGCACACAGAAGAAGAAAAAAA [CACACA_site9225]”, the “gcPBM binding intensity (ln)” value amounted to 10.1 ± 0.26. With “TGTAGTCTGGAGAAAAGTACACAGTATCTGGTAACA [XGTACX_site2010]”, the “gcPBM binding intensity (ln)” value was determined as 11.4 ± 0.89. The same measure for “AGTTTTATAAAAATATGTACTTATATACACATGTAT [XGTACX_site4022]”: 11.2 ± 0.67. For “TATGGCAAAACATTCACACATATTTATATATGTGTA [CACACA_site5588]”, the “gcPBM binding intensity (ln)” value was determined as 9.8 ± 0.099. For “TTCTGTTGGAATATATGTACATAATAAAAAAAAATA [XGTACX_site1741]”, the “gcPBM binding intensity (ln)” value was determined as 11.3 ± 0.74. Then “TTTTTTTTTTTTGTAATACACACCACTATATGTTAT [CACACA_site1844]”, with 10.1 ± 0.49. Then “ATATAATTAAAAACATGTACATATATATATATATAT [XGTACX_site2882]”, with 11.3 ± 0.83; and “CATAAATGTATATAAACATGCAAGGACAGACTTTTA [TGCATGCA_site900]”, with 11 ± 0.57.
